Binding data for six molecules are collected here from paper PMC7830406.

The labels stand for the following.
T1: 14–3–3 ε-nYFP (Arabidopsis thaliana) (UniProt P48347)
T1 sequence: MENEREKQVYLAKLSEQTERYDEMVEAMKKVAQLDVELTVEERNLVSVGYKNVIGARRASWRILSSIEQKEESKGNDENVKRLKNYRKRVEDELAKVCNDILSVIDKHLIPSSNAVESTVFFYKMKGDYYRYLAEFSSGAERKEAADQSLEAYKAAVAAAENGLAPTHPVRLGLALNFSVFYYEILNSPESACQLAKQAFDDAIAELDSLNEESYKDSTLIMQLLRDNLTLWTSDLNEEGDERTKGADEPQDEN

T2: 14–3–3 ε, GAL4 DNA-binding domain fusion (bait) (Arabidopsis thaliana) (UniProt P48347)
T2 sequence: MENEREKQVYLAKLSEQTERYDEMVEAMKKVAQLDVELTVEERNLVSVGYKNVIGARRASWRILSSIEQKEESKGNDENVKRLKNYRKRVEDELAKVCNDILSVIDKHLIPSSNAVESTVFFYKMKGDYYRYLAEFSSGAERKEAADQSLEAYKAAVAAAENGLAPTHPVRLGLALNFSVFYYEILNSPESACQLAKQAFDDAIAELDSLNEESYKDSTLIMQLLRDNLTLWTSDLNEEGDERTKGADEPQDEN

B1: bZIP18-S120A-cYFP (protein, UniProt O22873 1-367)
chain: MEDPSNPQPNQSNLSQCPPLATAPTPAPVRGPYHRRAHSEVQFRLPEDLDLSEPFGGFDELGSEDDLFCSYMDIEKLGSGSGSASDSAGPSAPRSDNPFSAENGGAEAGNSRPRHRHSLAVDGSSTLESIEAKKAMAPDKLAELWVVDPKRAKRIIANRQSAARSKERKARYILELERKVQTLQTEATTLSAQLSLFQRDTTGLSSENTELKLRLQVMEQQAKLRDALNEQLKKEVERLKFATGEVSPADAYNLGMAHMQYQQQPQQSFFQHHHQQQTDAQNLQQMTHQFHLFQPNNNQNQSSRTNPPTAHQLMHHATSNAPAQSHSYSEAMHEDHLGRLQGLDISSCGRGSNFGRSDTVSESSSTM
B2: bZIP18-S39A/S120A-cYFP (protein, UniProt O22873 1-367)
chain: MEDPSNPQPNQSNLSQCPPLATAPTPAPVRGPYHRRAHAEVQFRLPEDLDLSEPFGGFDELGSEDDLFCSYMDIEKLGSGSGSASDSAGPSAPRSDNPFSAENGGAEAGNSRPRHRHSLAVDGSSTLESIEAKKAMAPDKLAELWVVDPKRAKRIIANRQSAARSKERKARYILELERKVQTLQTEATTLSAQLSLFQRDTTGLSSENTELKLRLQVMEQQAKLRDALNEQLKKEVERLKFATGEVSPADAYNLGMAHMQYQQQPQQSFFQHHHQQQTDAQNLQQMTHQFHLFQPNNNQNQSSRTNPPTAHQLMHHATSNAPAQSHSYSEAMHEDHLGRLQGLDISSCGRGSNFGRSDTVSESSSTM
B3: bZIP18-cYFP (protein, UniProt O22873 1-367)
chain: MEDPSNPQPNQSNLSQCPPLATAPTPAPVRGPYHRRAHSEVQFRLPEDLDLSEPFGGFDELGSEDDLFCSYMDIEKLGSGSGSASDSAGPSAPRSDNPFSAENGGAEAGNSRPRHRHSLSVDGSSTLESIEAKKAMAPDKLAELWVVDPKRAKRIIANRQSAARSKERKARYILELERKVQTLQTEATTLSAQLSLFQRDTTGLSSENTELKLRLQVMEQQAKLRDALNEQLKKEVERLKFATGEVSPADAYNLGMAHMQYQQQPQQSFFQHHHQQQTDAQNLQQMTHQFHLFQPNNNQNQSSRTNPPTAHQLMHHATSNAPAQSHSYSEAMHEDHLGRLQGLDISSCGRGSNFGRSDTVSESSSTM
B4: bZIP18-S39A/S120A, GAL4 activation domain fusion (prey) (protein, UniProt O22873 1-367)
chain: MEDPSNPQPNQSNLSQCPPLATAPTPAPVRGPYHRRAHAEVQFRLPEDLDLSEPFGGFDELGSEDDLFCSYMDIEKLGSGSGSASDSAGPSAPRSDNPFSAENGGAEAGNSRPRHRHSLAVDGSSTLESIEAKKAMAPDKLAELWVVDPKRAKRIIANRQSAARSKERKARYILELERKVQTLQTEATTLSAQLSLFQRDTTGLSSENTELKLRLQVMEQQAKLRDALNEQLKKEVERLKFATGEVSPADAYNLGMAHMQYQQQPQQSFFQHHHQQQTDAQNLQQMTHQFHLFQPNNNQNQSSRTNPPTAHQLMHHATSNAPAQSHSYSEAMHEDHLGRLQGLDISSCGRGSNFGRSDTVSESSSTM
B5: bZIP18-S120A, GAL4 activation domain fusion (prey) (protein, UniProt O22873 1-367)
chain: MEDPSNPQPNQSNLSQCPPLATAPTPAPVRGPYHRRAHSEVQFRLPEDLDLSEPFGGFDELGSEDDLFCSYMDIEKLGSGSGSASDSAGPSAPRSDNPFSAENGGAEAGNSRPRHRHSLAVDGSSTLESIEAKKAMAPDKLAELWVVDPKRAKRIIANRQSAARSKERKARYILELERKVQTLQTEATTLSAQLSLFQRDTTGLSSENTELKLRLQVMEQQAKLRDALNEQLKKEVERLKFATGEVSPADAYNLGMAHMQYQQQPQQSFFQHHHQQQTDAQNLQQMTHQFHLFQPNNNQNQSSRTNPPTAHQLMHHATSNAPAQSHSYSEAMHEDHLGRLQGLDISSCGRGSNFGRSDTVSESSSTM
B6: bZIP18, GAL4 activation domain fusion (prey) (protein, UniProt O22873 1-367)
chain: MEDPSNPQPNQSNLSQCPPLATAPTPAPVRGPYHRRAHSEVQFRLPEDLDLSEPFGGFDELGSEDDLFCSYMDIEKLGSGSGSASDSAGPSAPRSDNPFSAENGGAEAGNSRPRHRHSLSVDGSSTLESIEAKKAMAPDKLAELWVVDPKRAKRIIANRQSAARSKERKARYILELERKVQTLQTEATTLSAQLSLFQRDTTGLSSENTELKLRLQVMEQQAKLRDALNEQLKKEVERLKFATGEVSPADAYNLGMAHMQYQQQPQQSFFQHHHQQQTDAQNLQQMTHQFHLFQPNNNQNQSSRTNPPTAHQLMHHATSNAPAQSHSYSEAMHEDHLGRLQGLDISSCGRGSNFGRSDTVSESSSTM

No constants are given. Whether binding was seen depends on the method and setting. For part of these data: In cells and extracts the contact can be indirect. Some entries that bind do so weakly or less than the wild type. Sequences can lack the tags named with a protein.

The target of the first experiment is T1, 14–3–3 ε-nYFP (Arabidopsis thaliana). Put plainly: split reporter; BiFC (split YFP, pBiFCt-2in1-CC, RFP as transformation control) in N. benthamiana leaf epidermal cells, confocal microscopy.
As for B1, the binding entry is “binds weakly”.
On the same count and under the same terms, under B2 stands “no binding”; under B3, “binds”.

For another experiment, the target named is T2, 14–3–3 ε, GAL4 DNA-binding domain fusion (bait) (Arabidopsis thaliana). Nature of the experiment: two-hybrid; yeast MaV203; bait 14-3-3 ε as GAL4 BD fusion, preys bZIP as GAL4 AD fusions; growth on SC -L/-T/-H + 10 mM 3AT, 28 °C, 5 days.
As to B4, the binding entry is reported as “no binding”.
The same measure, in the same setting: under B5 stands “binds”; under B6, “binds”.
